This is an account of results in article PMC4336329 (PLoS ONE, 2015).

Among all 310,000 compounds or so, about 14,000 (4.5%) showed an effect of 50% or more. The effect is printed as a negative number. The list shows a part of the results.
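Further: peak tail current of the secondary pulse compared with the same well before compound.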

In this test the target is human ether-à-go-go-related gene (hERG) potassium channel (human, UniProt Q12809). Description: primary screen, population patch clamp on CHO cells stably expressing hERG.
Chain of human ether-à-go-go-related gene (hERG) potassium channel (Q12809 whole entry, looked up): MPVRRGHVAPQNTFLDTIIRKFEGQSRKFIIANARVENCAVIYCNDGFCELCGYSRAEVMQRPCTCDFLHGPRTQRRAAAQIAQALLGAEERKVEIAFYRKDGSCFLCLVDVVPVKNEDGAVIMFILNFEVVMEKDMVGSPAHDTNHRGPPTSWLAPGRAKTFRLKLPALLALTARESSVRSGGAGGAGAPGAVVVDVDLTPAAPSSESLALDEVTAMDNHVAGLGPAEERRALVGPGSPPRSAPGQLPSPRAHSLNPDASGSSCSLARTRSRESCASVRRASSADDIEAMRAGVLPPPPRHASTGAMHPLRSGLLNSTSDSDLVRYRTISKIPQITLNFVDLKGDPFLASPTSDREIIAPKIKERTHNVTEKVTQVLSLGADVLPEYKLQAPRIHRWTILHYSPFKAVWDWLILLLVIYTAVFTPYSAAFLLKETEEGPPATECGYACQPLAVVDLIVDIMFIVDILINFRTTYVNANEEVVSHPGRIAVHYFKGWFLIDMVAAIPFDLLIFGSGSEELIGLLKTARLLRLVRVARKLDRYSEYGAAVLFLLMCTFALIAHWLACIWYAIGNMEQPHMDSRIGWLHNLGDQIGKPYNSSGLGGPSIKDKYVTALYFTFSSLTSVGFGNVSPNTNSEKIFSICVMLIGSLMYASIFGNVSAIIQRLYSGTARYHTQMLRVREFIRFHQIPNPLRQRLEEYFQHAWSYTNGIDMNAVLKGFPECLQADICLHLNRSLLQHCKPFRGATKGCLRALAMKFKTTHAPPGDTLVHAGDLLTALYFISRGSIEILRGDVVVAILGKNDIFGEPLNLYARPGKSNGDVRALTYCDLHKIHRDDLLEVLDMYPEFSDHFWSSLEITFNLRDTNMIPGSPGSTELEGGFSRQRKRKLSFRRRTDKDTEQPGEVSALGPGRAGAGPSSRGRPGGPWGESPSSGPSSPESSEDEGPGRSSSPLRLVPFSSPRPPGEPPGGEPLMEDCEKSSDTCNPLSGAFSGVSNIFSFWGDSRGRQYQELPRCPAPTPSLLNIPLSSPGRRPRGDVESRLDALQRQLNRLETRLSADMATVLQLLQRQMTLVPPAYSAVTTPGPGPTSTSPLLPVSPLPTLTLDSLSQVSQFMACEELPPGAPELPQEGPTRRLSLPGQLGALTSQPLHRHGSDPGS
As for `CCOC(=O)C1=C(N)OC2=C(C(=O)CC(C)C2)C1c1cccnc1` (stereo not drawn), the “hERG current change (%, negative = inhibition) at 10uM” value is 0.824%.
With `CCn1c(NC(=O)c2ccccc2F)c(-c2cccs2)c(=O)c2ccccc21`, the “hERG current change (%, negative = inhibition) at 10uM” value is on record as -6.52%.
The same measure for `CS(=O)(=O)N(CC(=O)Nc1cc(Cl)ccc1Cl)c1ccccc1`: -7.32%.
The same measure for `CCOC(=O)c1ccc(NC(=O)C2(c3ccccc3)CCCC2)cc1`: -19.6%; for `Cc1nc2c(C)cccn2c(=O)c1NC(=O)c1cccc2ccccc12`: 10.5%; for `COc1cccc(-n2c(O)c(C=NCCN3CCNCC3)c(=O)[nH]c2=S)c1`: 5.08%.
In the case of `O=C(NCc1ccco1)C(c1ccccc1)N(C(=O)Cc1cccs1)c1ccccc1` (stereo not drawn), the “hERG current change (%, negative = inhibition) at 10uM” value was found to be 19%.
The same measure for `O=P(O)(CCc1ccncc1)CN1CCCCC1`: 22.2%; for `Cc1ccccc1NC(=O)Cn1cnc2c1c(=O)n(C)c(=O)n2C`: 13.3%.
Then `COCCN(C(=O)CSc1nnc(C)n1-c1ccc(C)cc1)c1c(N)n(Cc2ccccc2)c(=O)[nH]c1=O`, with -2.83%.
The same measure for `CCO[C@@H]1OC(C(N)=O)=C[C@H](c2coc3ccccc3c2=O)[C@H]1CCCO`: -1.47%; for `C/C(=C\c1ccccc1)C(=O)NC1CCSC1=O` (stereo not drawn): -4.78%; for `Cc1nc(CN2CCCCC2)cc(=O)[nH]1`: 20.2%.
Take `CN1C(=O)N(c2nnc(C(C)(C)C)s2)C(=O)C1c1ccccc1` (stereo not drawn): the “hERG current change (%, negative = inhibition) at 10uM” value is 9.54%.
The same measure for `Cc1oc2c(C)c3oc(=O)c(CCC(=O)O)c(C)c3cc2c1-c1ccccc1`: 17.9%.
Take `O=S(=O)(Cc1ccccc1)N1CCn2c(nc3ccccc32)C1`: the “hERG current change (%, negative = inhibition) at 10uM” value stood at 9.91%.
The same measure for `Cc1ccc(C(=O)N2CCN(c3ccccc3)CC2)cc1NC(=O)c1ccco1`: -45.7%; for `C=CCC1C(=O)NC(=S)NC1=O`: 23.2%.
Then `Cc1occc1C(=O)NNC(=S)Nc1cccc([N+](=O)[O-])c1`, with 8.3%.
The same measure for `Cc1cc(OCC(=O)N2CCCN(C)CC2)ccc1Cl`: 1.3%; for `Nc1nc(-c2ccccn2)nc(N)c1Cc1c(F)cccc1Cl`: -4.24%; for `CCOC(=O)CC1COCCN1C(=O)c1cc(COc2ccc(F)c(F)c2)on1` (stereo not drawn): -61.5%.
As for `N=C1/C(=C\c2ccc(SCc3ccco3)o2)C(=O)N=C2SC=NN12`, the “hERG current change (%, negative = inhibition) at 10uM” value came to 25.3%.
As for `CC(C)(C)c1ccc(C(=O)NCC(=O)NNC(=O)c2ccccc2O)cc1`, the “hERG current change (%, negative = inhibition) at 10uM” value is reported as 10.3%.
Take `O=C(NS(=O)(=O)Oc1ccccc1F)OC[C@@H]1CCCN2CCCCC12` (stereo partly drawn): the “hERG current change (%, negative = inhibition) at 10uM” value stood at 41.2%.
The same measure for `Cc1[nH]c2ccccc2c1/C=C(\C#N)C(=O)NC(C)c1ccccc1` (stereo not drawn): 16.4%; for `O=C(CSc1nnc(-c2cccc(Br)c2)o1)N1CCOCC1`: 0.556%.
Take `COc1cc(C=C2C(=O)c3ccccc3C2=O)cc(OC)c1`: the “hERG current change (%, negative = inhibition) at 10uM” value turned out to be 16.8%.
Then `Cc1ccc(N(CC(=O)NCC2CCCO2)C(=O)CCC(=O)Nc2ccccn2)cc1C` (stereo not drawn), with -2.39%.
The same measure for `CC(=O)c1c(C)[nH]c(C2=NNC(=NC(C)(C)C)SC2)c1C`: 19.8%.
The same measure for `COc1cccc2c1Oc1ncccc1N(C(=O)CCC(=O)NCc1ccc(F)cc1)C2`: -32.6%.
As to `O=S(=O)(NCc1ccccc1)c1ccc(S(=O)(=O)N(Cc2cccs2)CC2CCCO2)cc1` (stereo not drawn), the “hERG current change (%, negative = inhibition) at 10uM” value is on record as 11.4%.
As to `COc1ccc(NC(=O)C2CCC(CNc3c(N4CCCCC4)c(=O)c3=O)CC2)cc1OC` (stereo not drawn), the “hERG current change (%, negative = inhibition) at 10uM” value was -5.56%.
Consider `NS(=O)(=O)c1cc2c(cc1Cl)NC(CSCc1ccccc1)=NS2(=O)=O`, for which the “hERG current change (%, negative = inhibition) at 10uM” value was determined as 19.6%.
Then `Cc1onc(-c2ccccc2Cl)c1C(=O)Oc1cc(N)n(S(=O)(=O)c2ccc(F)cc2)n1`, with -3.48%.
The same measure for `COc1ccc(N2CCN(C(c3ccccc3)c3sc4nc(C)nn4c3O)CC2)cc1` (stereo not drawn): -22.1%.
On to `O=C(NNC(=O)c1ccccc1Cl)c1ccc2c(=O)n3c(nc2c1)CCC3`, for which the “hERG current change (%, negative = inhibition) at 10uM” value is listed as -3.69%.
The same measure for `Cc1oc(-c2ccccc2F)nc1CS(=O)CC(=O)NCc1ccc2c(c1)OCO2` (stereo not drawn): -20.7%; for `Cc1ccnc(SCc2cc(=O)c(OC(=O)c3ccc(Cl)c([N+](=O)[O-])c3)co2)n1`: -20.4%.
Then `COc1cc(NC(=O)c2sc3ncn(CC(=O)N4CCCC(C)C4)c(=O)c3c2C)cc(OC)c1OC` (stereo not drawn), with 14.7%; and `COc1ccc(NC(=O)c2ccc(NC(=O)c3ccco3)cc2)c(OC)c1`, with 12.1%.
The same measure for `O=c1ccc2c(-c3ccccc3)c3ccc(O)cc3oc-2c1`: 22.6%.
`CCOc1ccc(S(=O)(=O)Nc2nc3ccccc3nc2Cl)cc1`: the “hERG current change (%, negative = inhibition) at 10uM” value was determined as 0.455%.
Take `CCOC(=O)N1CCN(C(=O)c2cc(S(=O)(=O)N3CCCC3)cn2C)CC1`: the “hERG current change (%, negative = inhibition) at 10uM” value was determined as 0.122%.
The same measure for `C/C=C(\C)C(=O)Nc1cccc(C2=NOC3(C2)C[C@@H](C(N)=O)N(C(=O)/C(C)=C/C)C3)c1` (stereo partly drawn): 2.55%; for `Cc1cc(S(=O)(=O)N2CCN(c3ncccn3)CC2)ccc1-n1cnnn1`: 5.84%; for `Cn1nc(C(=O)NNC(=O)CCc2ccccc2Cl)c2ccccc2c1=O`: -53.9%.
With `O=C(CSc1nc2ccccc2c(=O)[nH]1)N1CCN(S(=O)(=O)c2ccccc2)CC1`, the “hERG current change (%, negative = inhibition) at 10uM” value was 3.18%.
Then `O=C(COC(=O)CSc1cc(Cl)ccc1Cl)NCc1ccc2c(c1)OCO2`, with 13.5%; and `O=C1NC(=O)C(CCc2ccncc2)(c2ccccc2)C(=O)N1`, with 5.76%.
In the case of `CS(=O)(=O)c1nc(-c2ccccc2)c(-c2ccccc2)[nH]1`, the “hERG current change (%, negative = inhibition) at 10uM” value is on record as 5.1%.
As for `CCOC(=O)C1/C(=N\O)CC(C)(O)C(C(=O)OCC)C1c1ccc(OC)c(OC)c1` (stereo not drawn), the “hERG current change (%, negative = inhibition) at 10uM” value was -13.5%.
Consider `CCCS(=O)(=O)n1nc(-c2ccc(Br)cc2)cc1N`, for which the “hERG current change (%, negative = inhibition) at 10uM” value amounted to 10.8%.
In the case of `Cc1ccc(C(C)C)c(OCC(=O)N/N=C/C2CCCCC2)c1`, the “hERG current change (%, negative = inhibition) at 10uM” value is reported as -4.21%.
In the case of `Cc1ccc(C)c(OCCC(=O)OCC(=O)Nc2cc(S(=O)(=O)N3CCOCC3)ccc2C)c1`, the “hERG current change (%, negative = inhibition) at 10uM” value is reported as -20.9%.
The same measure for `CCOC(=O)N1CCN(C(=O)CSc2ccc3nnc(CCNC(=O)c4ccc(OC)cc4)n3n2)CC1`: -14.2%; for `Cc1ccc(SCC(=O)OCC(=O)N(C)C2CCS(=O)(=O)C2)cc1C` (stereo not drawn): -11.5%.
As for `O=C(c1cccc(S(=O)(=O)N2CCc3ccccc32)c1)N1CCc2ccccc2C1`, the “hERG current change (%, negative = inhibition) at 10uM” value is -13%.
Then `CCc1ccc(N2CC(C(=O)Nc3cc(C)on3)CC2=O)cc1` (stereo not drawn), with -9.26%.
Consider `COC(=O)c1cc(-c2ccc(OC)cc2)n[nH]1`, for which the “hERG current change (%, negative = inhibition) at 10uM” value is listed as 6.32%.
Then `COc1cccc(CNc2ccc3[nH]c(=O)[nH]c3c2)c1OCc1ccccc1F`, with 10.8%; and `COc1cc(C(Nc2ccc(S(=O)(=O)NCC3CCCO3)cc2)C(=O)NC(C)(C)C)cc(OC)c1OC` (stereo not drawn), with 11%; and `COc1ccc(C(c2c(C)[nH]n(-c3ccccc3)c2=O)c2c(C)[nH]n(-c3ccccc3)c2=O)cc1OC`, with -3.79%.
Then `CCOC(=O)C1C(=O)CC(C)(O)C(C(=O)OCC)C1c1ccc(F)cc1` (stereo not drawn), with 10.1%; and `COC(=O)C1=C(c2ccc(F)cc2OCc2ccccc2)C[C@@H]2CC[C@H]1N2C(=O)NC(C)C`, with -35.3%; and `C=CCN1C(=O)C(O)(CC(=O)c2ccc(-n3cccc3)cc2)c2ccccc21` (stereo not drawn), with -4.4%.
In the case of `CNC(=O)C(=O)Nc1c(C)cc(C)cc1C`, the “hERG current change (%, negative = inhibition) at 10uM” value is reported as 10.5%.
Then `CCC(=O)N(CCC1(C(C)C)CCOC(C)(C)C1)C(C)c1cccs1` (stereo not drawn), with 5.85%; and `COc1cc(/C=C(\C#N)C(=O)NCc2cccs2)ccc1O`, with -0.725%.
The same measure for `CC(=O)Nc1ccc(S(=O)(=O)N2CCC(C(=O)NCc3ccncc3)CC2)cc1`: 6.89%; for `CN(C)CCn1c(=O)n(Cc2ccccc2)c(=O)c2c3c(sc21)CCCCC3`: -3.31%; for `COc1cc(Br)cc(CN2CCN(C=O)CC2)c1O`: -2.6%.
`Oc1ccc(/C(Cc2ccccn2)=N\Nc2ccccc2)c(O)c1`: the “hERG current change (%, negative = inhibition) at 10uM” value is listed as 8.76%.
Take `COC(=O)c1ccc(OC)c(Cn2c(=O)n(C)c(=O)c3ccccc32)c1`: the “hERG current change (%, negative = inhibition) at 10uM” value was 9.94%.
On to `COc1ccc(CN(C(=O)COc2ccccc2)c2ccccc2C(=O)O)cc1`, for which the “hERG current change (%, negative = inhibition) at 10uM” value came to 23.9%.
The same measure for `Cc1oc(=O)c(NC(=O)c2ccccc2)cc1C(=O)c1ccccc1`: 10.6%; for `COc1cccc(CNC(=O)CSCc2cnn(-c3ccccc3)c2-n2cccc2)c1`: -20.1%.
Then `CC(C(=O)N=Nc1c(O)[nH]c2ccccc12)n1cnc2ccccc2c1=O` (stereo not drawn), with -19.2%; and `CCOC(=O)CCCNC(=O)COC(=O)c1cccc(C)c1O`, with 6.71%; and `O=C1CC(=O)N2N=C(c3ccc([N+](=O)[O-])cc3)SC2=N1`, with -1.2%.
The same measure for `CCc1noc(C)c1C(=O)Nc1cc(S(=O)(=O)N(CC)CC)ccc1N1CCOCC1`: -18.4%.
Turning to `O=C(Nc1ccccn1)C1CCN(S(=O)(=O)c2cccc3nonc23)CC1`, the “hERG current change (%, negative = inhibition) at 10uM” value was -12.8%.
The same measure for `Cc1ccc(CCSc2ccc(F)cc2)cn1.O=C(O)C(=O)O`: -3.91%.
As for `Fc1ccc(-c2cc3nc(-c4ccccc4)cc(N4CCOCC4)n3n2)cc1`, the “hERG current change (%, negative = inhibition) at 10uM” value is 1.88%.
